To fix the notation:
B1: Caulobacter ParB omega fusion; a variant is named by its letters at X, in order, B8GW30 (parent)
chain: MESVVVGEPGMSEGRRGLGRGLSALLGEVDAAPAQAPGEQLGGSREAPIEILQRNPDQPRRTFREEDLEDLSNSIREKGVLQPILVRPSPDTAGEYQIVAGERAWRAAQRAGLKTVPIMVRELDDLAVLEIGIIENVQRADLNVLEEALSYKVLMEKFERTQENIAQTIGKSXSHVANXMRLLXLPDEVQSYLVSGELTAXHARAIAAAADPVALAKQIIEGGLSVRETEALARKAPNLSAGKSKGGRPPRVKDTDTQALESDLSSVLGLDVSIDHRGSTGTLTITYATLEQLDDLCNRLTRGI

Over roughly 81,000 sequences, “one-hybrid fitness for binding NBS DNA” has its median near -0.1; the highest 2% begin near 0.36. This is one part of the list.

Variants of B1 are the subject of the assay. Description: one-hybrid fitness for binding NBS DNA (the Noc-binding site; scaled: cognate 1, non-cognate 0); higher = stronger binding. To be noted: with NBS DNA site. In a few lines: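 Pre- and post-selection plasmids were Illumina-sequenced, three replicate libraries were pooled, and any variant with under 10 reads was removed. The libraries were Caulobacter ParB with four specificity codons randomised, selected in E. coli USO through a HIS3 reporter whose site is 19 bp from the promoter. Cells grew 48 hours at 37°C on M9 without histidine, with 0.1 mM IPTG and 5 mM 3-AT. Fitness is the log change in variant-to-wild-type read ratio, rescaled against cognate and non-cognate.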
As to DVPP, the “one-hybrid fitness for binding NBS DNA” value was not above 0.2.

As for ALID, the “one-hybrid fitness for binding NBS DNA” value is not above 0.2.

MKKY: the “one-hybrid fitness for binding NBS DNA” value is not above 0.2.

RCHW: the “one-hybrid fitness for binding NBS DNA” value was not above 0.2.

Regarding LSFF, the “one-hybrid fitness for binding NBS DNA” value was not above 0.2.

For ISTT, the “one-hybrid fitness for binding NBS DNA” value was not above 0.2.

In the case of LRAL, the “one-hybrid fitness for binding NBS DNA” value was not above 0.2.

AVQD: the “one-hybrid fitness for binding NBS DNA” value was not above 0.2.

On to IQNS, for which the “one-hybrid fitness for binding NBS DNA” value was not above 0.2.

For the variant CQRC, the “one-hybrid fitness for binding NBS DNA” value was not above 0.2.

With NAYC, the “one-hybrid fitness for binding NBS DNA” value was not above 0.2.

Turning to RHAT, the “one-hybrid fitness for binding NBS DNA” value worked out at 0.432.

As for PLNC, the “one-hybrid fitness for binding NBS DNA” value was not above 0.2.

Regarding EVYC, the “one-hybrid fitness for binding NBS DNA” value is not above 0.2.

On to EKVT, for which the “one-hybrid fitness for binding NBS DNA” value is not above 0.2.

With RPES, the “one-hybrid fitness for binding NBS DNA” value is not above 0.2.

For GNYQ, the “one-hybrid fitness for binding NBS DNA” value was not above 0.2.

As for VCRE, the “one-hybrid fitness for binding NBS DNA” value was not above 0.2.

RSHC: the “one-hybrid fitness for binding NBS DNA” value is not above 0.2.

Consider LCNR, for which the “one-hybrid fitness for binding NBS DNA” value was not above 0.2.

Regarding MQMS, the “one-hybrid fitness for binding NBS DNA” value was not above 0.2.

Take AAFP: the “one-hybrid fitness for binding NBS DNA” value was not above 0.2.

As for PMGG, the “one-hybrid fitness for binding NBS DNA” value was not above 0.2.

Consider HNSE, for which the “one-hybrid fitness for binding NBS DNA” value was not above 0.2.

Take IRGR: the “one-hybrid fitness for binding NBS DNA” value was determined as 0.305.

On to YEHS, for which the “one-hybrid fitness for binding NBS DNA” value is not above 0.2.

As for ASGT, the “one-hybrid fitness for binding NBS DNA” value is not above 0.2.

Turning to HKIE, the “one-hybrid fitness for binding NBS DNA” value is not above 0.2.

For EACL, the “one-hybrid fitness for binding NBS DNA” value is not above 0.2.

As to FGMF, the “one-hybrid fitness for binding NBS DNA” value was not above 0.2.

For the variant RSGV, the “one-hybrid fitness for binding NBS DNA” value was not above 0.2.

Take KFNG: the “one-hybrid fitness for binding NBS DNA” value is not above 0.2.

Regarding CSIV, the “one-hybrid fitness for binding NBS DNA” value was not above 0.2.

GFNP: the “one-hybrid fitness for binding NBS DNA” value is not above 0.2.

In the case of YMIS, the “one-hybrid fitness for binding NBS DNA” value was not above 0.2.

Regarding LMGT, the “one-hybrid fitness for binding NBS DNA” value was not above 0.2.

For YTTT, the “one-hybrid fitness for binding NBS DNA” value was not above 0.2.

For SLYQ, the “one-hybrid fitness for binding NBS DNA” value is not above 0.2.

Take AQMR: the “one-hybrid fitness for binding NBS DNA” value was not above 0.2.

Regarding YYHR, the “one-hybrid fitness for binding NBS DNA” value was not above 0.2.

With PICL, the “one-hybrid fitness for binding NBS DNA” value was not above 0.2.

CIGT: the “one-hybrid fitness for binding NBS DNA” value was not above 0.2.

On to WDVG, for which the “one-hybrid fitness for binding NBS DNA” value was not above 0.2.

As for SVHE, the “one-hybrid fitness for binding NBS DNA” value was not above 0.2.

For MQQT, the “one-hybrid fitness for binding NBS DNA” value was not above 0.2.

Turning to RIGA, the “one-hybrid fitness for binding NBS DNA” value is not above 0.2.

As for FRYS, the “one-hybrid fitness for binding NBS DNA” value is not above 0.2.

Turning to QVKI, the “one-hybrid fitness for binding NBS DNA” value was not above 0.2.

KLCT: the “one-hybrid fitness for binding NBS DNA” value is not above 0.2.

Take LPWA: the “one-hybrid fitness for binding NBS DNA” value is not above 0.2.

Consider HHSI, for which the “one-hybrid fitness for binding NBS DNA” value was not above 0.2.

Consider LCIM, for which the “one-hybrid fitness for binding NBS DNA” value is not above 0.2.

For AYQF, the “one-hybrid fitness for binding NBS DNA” value is not above 0.2.

Regarding NLED, the “one-hybrid fitness for binding NBS DNA” value was not above 0.2.

Regarding IKQM, the “one-hybrid fitness for binding NBS DNA” value is not above 0.2.

For QYCV, the “one-hybrid fitness for binding NBS DNA” value was not above 0.2.

Consider SFMR, for which the “one-hybrid fitness for binding NBS DNA” value is not above 0.2.

In the case of IEAV, the “one-hybrid fitness for binding NBS DNA” value is not above 0.2.

QIDL: the “one-hybrid fitness for binding NBS DNA” value was not above 0.2.

With WSIT, the “one-hybrid fitness for binding NBS DNA” value is not above 0.2.

For the variant LQMM, the “one-hybrid fitness for binding NBS DNA” value is not above 0.2.

YIDC: the “one-hybrid fitness for binding NBS DNA” value is not above 0.2.

In the case of GMLI, the “one-hybrid fitness for binding NBS DNA” value was not above 0.2.

Regarding GEQY, the “one-hybrid fitness for binding NBS DNA” value is not above 0.2.

With RMIG, the “one-hybrid fitness for binding NBS DNA” value was not above 0.2.

In the case of EDSL, the “one-hybrid fitness for binding NBS DNA” value is not above 0.2.

As for PPQT, the “one-hybrid fitness for binding NBS DNA” value was not above 0.2.

For the variant RMCH, the “one-hybrid fitness for binding NBS DNA” value was not above 0.2.

On to HCMM, for which the “one-hybrid fitness for binding NBS DNA” value was not above 0.2.

Consider KNEP, for which the “one-hybrid fitness for binding NBS DNA” value was not above 0.2.

Turning to MMTG, the “one-hybrid fitness for binding NBS DNA” value is not above 0.2.

For the variant GTNA, the “one-hybrid fitness for binding NBS DNA” value is not above 0.2.

For the variant PMAN, the “one-hybrid fitness for binding NBS DNA” value was not above 0.2.

As for FPNL, the “one-hybrid fitness for binding NBS DNA” value is not above 0.2.

In the case of HDVT, the “one-hybrid fitness for binding NBS DNA” value is not above 0.2.

For QMPE, the “one-hybrid fitness for binding NBS DNA” value was not above 0.2.

Take NFNG: the “one-hybrid fitness for binding NBS DNA” value was not above 0.2.

Turning to TMII, the “one-hybrid fitness for binding NBS DNA” value is not above 0.2.

As for TIKR, the “one-hybrid fitness for binding NBS DNA” value was 0.202.

As for TTHC, the “one-hybrid fitness for binding NBS DNA” value was not above 0.2.

YNPY: the “one-hybrid fitness for binding NBS DNA” value is not above 0.2.

Consider GCGC, for which the “one-hybrid fitness for binding NBS DNA” value was not above 0.2.

Consider FYSW, for which the “one-hybrid fitness for binding NBS DNA” value is not above 0.2.

On to LKEC, for which the “one-hybrid fitness for binding NBS DNA” value is not above 0.2.

Turning to MWWA, the “one-hybrid fitness for binding NBS DNA” value is not above 0.2.

Take LPYT: the “one-hybrid fitness for binding NBS DNA” value was not above 0.2.

Turning to QSFL, the “one-hybrid fitness for binding NBS DNA” value was not above 0.2.

As to MEPH, the “one-hybrid fitness for binding NBS DNA” value was not above 0.2.

Take ADFC: the “one-hybrid fitness for binding NBS DNA” value was not above 0.2.

With CWSD, the “one-hybrid fitness for binding NBS DNA” value was not above 0.2.

Turning to RPRY, the “one-hybrid fitness for binding NBS DNA” value is not above 0.2.

As to CARA, the “one-hybrid fitness for binding NBS DNA” value was not above 0.2.

For TVAC, the “one-hybrid fitness for binding NBS DNA” value was not above 0.2.

Take KRMG: the “one-hybrid fitness for binding NBS DNA” value was not above 0.2.

LRQC: the “one-hybrid fitness for binding NBS DNA” value is not above 0.2.

Regarding EQHR, the “one-hybrid fitness for binding NBS DNA” value is not above 0.2.

For the variant RVCC, the “one-hybrid fitness for binding NBS DNA” value was not above 0.2.

As for MTSW, the “one-hybrid fitness for binding NBS DNA” value is not above 0.2.

As for WTNG, the “one-hybrid fitness for binding NBS DNA” value is not above 0.2.

As for GFHG, the “one-hybrid fitness for binding NBS DNA” value is not above 0.2.

For the variant RQNS, the “one-hybrid fitness for binding NBS DNA” value is 0.48.

CFIT: the “one-hybrid fitness for binding NBS DNA” value is not above 0.2.

Regarding TAIV, the “one-hybrid fitness for binding NBS DNA” value is not above 0.2.

QEAP: the “one-hybrid fitness for binding NBS DNA” value is not above 0.2.

Regarding RMDF, the “one-hybrid fitness for binding NBS DNA” value is not above 0.2.

For the variant VAKF, the “one-hybrid fitness for binding NBS DNA” value is not above 0.2.

HEWF: the “one-hybrid fitness for binding NBS DNA” value is not above 0.2.

Regarding HKCM, the “one-hybrid fitness for binding NBS DNA” value is not above 0.2.

As to QQLA, the “one-hybrid fitness for binding NBS DNA” value came out at 0.294.

Consider ITNS, for which the “one-hybrid fitness for binding NBS DNA” value is not above 0.2.

Turning to HYDR, the “one-hybrid fitness for binding NBS DNA” value was not above 0.2.

As for KKPR, the “one-hybrid fitness for binding NBS DNA” value was not above 0.2.

As to QMTK, the “one-hybrid fitness for binding NBS DNA” value was not above 0.2.

With IHGR, the “one-hybrid fitness for binding NBS DNA” value is not above 0.2.

Regarding QVIN, the “one-hybrid fitness for binding NBS DNA” value was not above 0.2.

Regarding DSVC, the “one-hybrid fitness for binding NBS DNA” value is not above 0.2.

For the variant RALC, the “one-hybrid fitness for binding NBS DNA” value is not above 0.2.

Turning to LRGR, the “one-hybrid fitness for binding NBS DNA” value came to 0.267.

As for MRGF, the “one-hybrid fitness for binding NBS DNA” value is not above 0.2.

As for QTYA, the “one-hybrid fitness for binding NBS DNA” value is 0.427.

On to RIYR, for which the “one-hybrid fitness for binding NBS DNA” value is 0.377.

With YKDT, the “one-hybrid fitness for binding NBS DNA” value came out at 0.385.

LASK: the “one-hybrid fitness for binding NBS DNA” value was not above 0.2.

For the variant GMYE, the “one-hybrid fitness for binding NBS DNA” value was not above 0.2.

Take EASW: the “one-hybrid fitness for binding NBS DNA” value was not above 0.2.

Turning to CKLT, the “one-hybrid fitness for binding NBS DNA” value was not above 0.2.

As for DMPW, the “one-hybrid fitness for binding NBS DNA” value is not above 0.2.

With RKCC, the “one-hybrid fitness for binding NBS DNA” value is not above 0.2.

As to MTPY, the “one-hybrid fitness for binding NBS DNA” value was not above 0.2.

Take QLCC: the “one-hybrid fitness for binding NBS DNA” value was not above 0.2.

Consider ASDY, for which the “one-hybrid fitness for binding NBS DNA” value was not above 0.2.

Regarding ICKS, the “one-hybrid fitness for binding NBS DNA” value was not above 0.2.

Take KCVL: the “one-hybrid fitness for binding NBS DNA” value is not above 0.2.

VEAT: the “one-hybrid fitness for binding NBS DNA” value was not above 0.2.

Regarding HIRL, the “one-hybrid fitness for binding NBS DNA” value is not above 0.2.

With FPHV, the “one-hybrid fitness for binding NBS DNA” value is not above 0.2.

Consider HPDC, for which the “one-hybrid fitness for binding NBS DNA” value was not above 0.2.

In the case of RTIY, the “one-hybrid fitness for binding NBS DNA” value was not above 0.2.

For CQGC, the “one-hybrid fitness for binding NBS DNA” value was not above 0.2.

For the variant TEGR, the “one-hybrid fitness for binding NBS DNA” value is not above 0.2.

On to LSFV, for which the “one-hybrid fitness for binding NBS DNA” value was not above 0.2.

In the case of YTHS, the “one-hybrid fitness for binding NBS DNA” value was not above 0.2.

In the case of YCRV, the “one-hybrid fitness for binding NBS DNA” value is not above 0.2.

With PTTT, the “one-hybrid fitness for binding NBS DNA” value was not above 0.2.

As to ISDP, the “one-hybrid fitness for binding NBS DNA” value was not above 0.2.

As for EFRL, the “one-hybrid fitness for binding NBS DNA” value is not above 0.2.

IPVG: the “one-hybrid fitness for binding NBS DNA” value is not above 0.2.

For RWSH, the “one-hybrid fitness for binding NBS DNA” value was not above 0.2.

As for TTQV, the “one-hybrid fitness for binding NBS DNA” value was not above 0.2.

As for QDEV, the “one-hybrid fitness for binding NBS DNA” value was not above 0.2.

Consider FPDQ, for which the “one-hybrid fitness for binding NBS DNA” value is not above 0.2.

On to WRFR, for which the “one-hybrid fitness for binding NBS DNA” value was not above 0.2.

As to IKHS, the “one-hybrid fitness for binding NBS DNA” value is not above 0.2.

The record behind these values is a collection of fitness landscapes (doi:10.1016/j.celrep.2020.107928).
